Experimental data from PubChem BioAssay AID1745845 (National Center for Advancing Translational Sciences (NCATS), 2022).
Where “and” joins values, the source holds several entries; their conditions need not be identical. Identical values can stand only once. Among all 360,000 compounds or so, about 2,600 (0.72%) were called active. This list was built around the results that the source calls inconclusive (neither active nor inactive); the mix of calls is not that of the screen. Calls come from the whole dose curve; as a rule, active = well fitted inhibition curve with a large enough effect; inconclusive = small, poorly fitted or top-dose-only effect; inactive = no such curve, though single readings can be large or run the other way. Potencies of inconclusive entries are doubtful fits and often do not repeat.

Assay: Primary qHTS for Inhibitors of ATXN expression; note: nearly all actives have a fitted effect of over 55% in size
Conditions: HEK-293 ATXN2-luciferase reporter, luminescence, 24 h; activity change, negative = inhibition: at 57 µM (top of the series)
Procedure, shortened: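 qHTS (up to 57 uM final) was run with 24 h compound exposure of reporter cells at 37 °C. Each well was multiplexed: SteadyGlo luminescence measured ATXN2-luciferase expression after a fluorogenic Gly-Phe-AFC viability readout (25 uM final).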
% is set by controls: 0 for no effect and ±100 for the full control effect; potency is the fitted concentration of half-maximal effect; tags give direction and shape of the fitted curve.

SMILES	Potency	activity change, negative = inhibition
CCN(CC)c1ccc(CN2CC=C(c3ccc(F)cc3)CC2)cc1	inconclusive: 28.2 µM [inhibitor, partial curve]	–
C=C[C@@H]1CN2CCC1C[C@H]2[C@H](O)c1ccnc2ccccc12 (stereo not given in full)	inconclusive: 15.3 µM [inhibitor, partial curve]	–
Clc1ccc(COC(Cn2ccnc2)c2ccc(Cl)cc2Cl)c(Cl)c1 (stereo not given)	inconclusive: 27.3 µM [inhibitor, single point] and inconclusive: 35.5 µM [inhibitor, single point] and inconclusive: 28.2 µM [inhibitor, partial curve, poor fit]	–
O=C(Nc1ccccc1)c1c(O)[nH]c(=S)[nH]c1=O	inconclusive: 25.1 µM [inhibitor, partial curve, poor fit]	–
CN(C)c1ccc([P+](=O)c2ccc(N(C)C)cc2)cc1	–	inactive: 10.5%
CCN(CC)CCCOC(=O)C(OC(C)C)(c1ccccc1)c1ccccc1	inconclusive: 15.8 µM [inhibitor, partial curve]	–
COc1cccc(Oc2c(C)oc3cc(OC(=O)N(C)C)ccc3c2=O)c1	–	inactive: -10.7%
COC(=O)C(O)(c1ccc(N(C)C(=O)OC(C)C)cc1)C(F)(F)F (stereo not given)	–	inactive: 1.01%
CCC(=O)O[C@H]1CC[C@H]2[C@@H]3CCC4=CC(=O)CC[C@]4(C)[C@H]3CC[C@]12C	inconclusive: 28.2 µM [inhibitor, single point]	–
CO[C@]12CC[C@@]3(C[C@@H]1[C@](C)(O)C(C)(C)C)[C@@H]1Cc4ccc(O)c5c4[C@@]3(CCN1CC1CC1)[C@H]2O5	active: 35.5 µM	–
COC(=O)C1=C(c2cccc(OC)c2OC)C[C@@H]2CC[C@H]1N2C(=O)NCCO	–	inactive: 7.02%
COc1ccc(C(c2nnnn2C(C)(C)C)N2CCC3(CC2)C(=O)NCN3c2ccccc2)cc1 (stereo not given)	–	inactive: -14.9%
Fc1ccc(CCNCc2ccc(Cl)c(Cl)c2)cc1	inconclusive: 31.6 µM [inhibitor, single point]	–
O=c1[nH]c2ccccc2n1C1CCN(Cc2ccc(-c3[nH]c4cc5ncnc5cc4nc3-c3ccccc3)cc2)CC1	inconclusive: 20 µM [inhibitor, partial curve, poor fit] and inconclusive: 27.3 µM [inhibitor, single point]	–
CSc1ccccc1C(=O)C1CCCN(Cc2cccc(C)n2)C1 (stereo not given)	inconclusive: 2.12 µM [inhibitor, partial curve, poor fit]	–
CC12CCC3C(CCC4CC(=O)C(C(O)C(F)(F)F)CC43C)C1CCC2O (stereo not given)	–	inactive: -13.7%
CC[n+]1c(/C=C/C=C/c2ccc(N(C)C)cc2)sc2ccccc21	inconclusive: 1.68 µM [inhibitor, full curve]	–
Cn1c(O)c(/C=C2\N=c3ccccc3=C2CCNC(=S)NC2CC2)c(=O)n(C)c1=O	inconclusive: 39.8 µM [inhibitor, single point]	–
CCCN1CCc2cccc3c2[C@H]1Cc1ccc(O)c(O)c1-3	inconclusive: 35.5 µM [inhibitor, single point]	–
CC(C)(C)n1cc(C(=O)c2ccc3ccccc3c2O)cn1	inconclusive: 31.6 µM [inhibitor, single point]	–

SMILES	Potency	activity change, negative = inhibition
COC(=O)[C@]12OC[C@]34C([C@@H](O)[C@@H]1O)[C@]1(C)CC(=O)C(O)=C(C)[C@@H]1C[C@H]3OC(=O)[C@H](O)[C@@H]24 (stereo not given in full)	inconclusive: 3.16 µM [inhibitor, partial curve, poor fit]	–
COC(=O)C1=C(c2ccc(-c3ccccc3)c(F)c2)C[C@@H]2CC[C@H]1N2C(=O)N1CCc2cc(OC)c(OC)cc2C1	inconclusive: 35.5 µM [inhibitor, partial curve, poor fit]	–
CC1(C)N(O)C2CCCCC2N1O (stereo not given)	–	inactive: -11.3%
CCCCC1(CCCC)C(=O)NC(=Nc2cccc(C)c2)NC1=O	inconclusive: 39.8 µM [inhibitor, single point]	–
CN1C(=O)NC(=O)/C(=C/c2ccc([N+](=O)[O-])o2)C1=O	inconclusive: 21.2 µM [inhibitor, partial curve, poor fit]	–
O=C(NCCN1CCC2(CC1)C(=O)NCN2c1cccc(F)c1)c1ccc2ccccc2c1	active: 12.6 µM	–
CC[C@@H]1[C@@H](C)O[C@@](O)([C@@H](C)[C@H](O)[C@H](C)[C@H]2OC(=O)C=CC=C[C@@H](C)[C@@H]([C@@H](C)[C@@H](O)[C@H](C)[C@@]3(O)C[C@H](O[C@H]4C[C@H](O)[C@H](O)[C@H](C)O4)[C@H](CC)[C@@H](C)O3)OC(=O)C=CC=C[C@@H]2C)C[C@H]1O[C@H]1C[C@H](O)[C@H](O)[C@H](C)O1	active: 0.968 µM	–
COC(=O)C1=C(c2cc3ccccc3o2)C[C@@H]2CC[C@H]1N2C(=O)NC1CCCCC1	inconclusive: 25.1 µM [inhibitor, single point]	–
O=C1/C(=C/c2ccccc2)C[C@@]2(O)[C@H]3Cc4ccc(O)c5c4[C@@]2(CCN3CC2CC2)C1O5 (stereo not given in full)	active: 3.55 µM	–
O=C1Nc2cc(C(=O)N3CCC4(CC3)OCCO4)ccc2S/C1=C\c1ccccc1	inconclusive: 12.6 µM [inhibitor, partial curve, poor fit]	–
C=C1C(=O)O[C@@H]2C[C@@H](C)[C@H]3C=CC(=O)[C@]3(O)C[C@@H]12	inconclusive: 31.6 µM [inhibitor, single point]	–
O=C1NC(=O)N(c2ccc3c(c2)OCO3)C(=O)/C1=C/c1cccs1	–	inactive: -17.2%
Cc1ccc(C[n+]2c(-c3ccc(C)cc3)cc(-c3ccc(C)cc3)cc2-c2ccc(C)cc2)cc1	inconclusive: 1.26 µM [inhibitor, partial curve, poor fit]	–
C=CCn1c(O)c(C(C)=NCCCN(C)C)c(=O)[nH]c1=O	–	inactive: -5.14%
CNc1ccc2oc(C[C@H]3O[C@@]4(CC[C@H]3C)O[C@H]([C@H](C)C(=O)c3ccc[nH]3)[C@H](C)C[C@H]4C)nc2c1C(=O)O	active: 8.91 µM	–
CCCCCn1c(=O)c(C(=O)Nc2nc(CC(=O)OCC)cs2)c(O)c2ccccc21	inconclusive: 37.7 µM [inhibitor, single point]	–
Cc1cccc(C)c1-n1nnnc1C(c1ccnc2ccccc12)N1CCC2(CC1)C(=O)NCN2c1ccccc1 (stereo not given)	inconclusive: 35.5 µM [inhibitor, single point]	–
Cc1cccc(Cn2cccc(C(=O)Nc3ccc(F)cc3F)c2=O)c1	–	inactive: -11%
O=C(/C=C/c1ccc(Br)cc1)NC(=S)N1C[C@H]2C[C@H](C1)c1cccc(=O)n1C2	–	inactive: 7.87%
COc1ccc(OC(=O)N(C)C[C@@H]2OCc3ccccc3-c3c(n(C)c4ccccc34)C(=O)N([C@H](C)CO)C[C@@H]2C)cc1	inconclusive: 31.6 µM [inhibitor, partial curve, poor fit]	–

SMILES	Potency	activity change, negative = inhibition
C[C@]12CCC3C(CC[C@H]4C[C@H](O)CC[C@]34C)C1C[C@@H](O)[C@H]2O (stereo not given in full)	–	inactive: -15.8%
CCc1cc(=O)oc2cc(C)cc(OCC(=O)N3CCC(C(=O)O)(c4ccccc4)CC3)c12	–	inactive: 5.01%
Cc1ccc(/C=C2\C(=O)NC(=S)N(c3ccc(F)cc3)C2=O)s1	inconclusive: 37.7 µM [inhibitor, single point]	–
CCOC(=O)[C@]12Cc3cc(C)ccc3[C@H]1N(C1CCCCC1)C(=O)c1ccccc12	active: 4.47 µM	–
CCc1cc(OC)c(C[C@H](C)N)cc1OC	inconclusive: 39.8 µM [inhibitor, full curve]	–
O=C(NC1CCCCC1)N1Cc2cc(N3CCCCC3)ccc2-n2nncc2C1	–	inactive: 2.55%
Cc1ccc(CNCCc2ccccc2F)cc1	–	inactive: 4.9%
CSc1ccc(C(=O)C2CCCN(Cc3cnc(SC)nc3)C2)cc1 (stereo not given)	inconclusive: 31.6 µM [inhibitor, single point]	–
ClC1=C(Cl)[C@]2(Cl)[C@@H]3[C@@H]4C[C@@H]([C@H]5O[C@@H]45)[C@@H]3[C@@]1(Cl)C2(Cl)Cl	inconclusive: 70.8 µM [inhibitor, single point]	–
CSCCC(c1nnnn1-c1c(C)cccc1C)N1CCC2(CC1)C(=O)NCN2c1ccccc1 (stereo not given)	inconclusive: 25.1 µM [inhibitor, partial curve, poor fit]	–
C=CCn1c(O)c(/C=N/NC(=O)CCCC)c(=O)[nH]c1=S	inconclusive: 1.89 µM [inhibitor, full curve]	–
CCOC(=O)[C@]12Cc3cc(C)ccc3[C@H]1N(Cc1ccccc1)C(=O)c1ccccc12	inconclusive: 31.6 µM [inhibitor, single point]	–
O=c1[nH]c(=O)n(-c2ccc(Br)cc2)c(O)c1C=NC(CO)(CO)CO	–	inactive: 13.5%
CCOC(=O)[C@]12Cc3ccccc3[C@H]1N(C(C)C)C(=O)c1ccccc12	inconclusive: 39.8 µM [inhibitor, single point]	–
CCOC(=O)[C@]12Cc3ccccc3[C@H]1N(CCC(=O)OC)C(=O)c1ccccc12	–	inactive: -13.7%
COc1cccc(-c2nn(Cc3ccccc3)cc2C(=O)O)c1	–	inactive: 1.53%
Cc1c(N=Nc2c(O)n(Cc3ccccc3)c(=O)[nH]c2=O)c(=O)n(-c2ccccc2)n1C	inconclusive: 2.51 µM [inhibitor, partial curve, poor fit]	–
O=C(C[n+]1ccn(CCCNP2(=O)C=C(c3ccccc3)OC(c3ccccc3)=C2)c1)c1ccccc1	–	inactive: -14%
CN1CCN(C(=O)COc2ccc(-c3nc4ccccc4s3)cc2)CC1	inconclusive: 14.1 µM [inhibitor, single point]	–
C[C@@H]1CC[C@H]2[C@@H](C)C(=O)O[C@@H]3O[C@@]4(C)CC[C@H]1[C@]32OO4	inconclusive: 4.85 µM [inhibitor, partial curve, poor fit]	–
